In article PMC12820563 one finds binding signal (RPM ratio (pull-down/input)) data, which are given here for 63 sequences.

Some of the results follow. The list includes weakly bound sequences.

The assay addresses T1, MBP-FoxP3dN (UniProt Q99JB6).
T1 sequence: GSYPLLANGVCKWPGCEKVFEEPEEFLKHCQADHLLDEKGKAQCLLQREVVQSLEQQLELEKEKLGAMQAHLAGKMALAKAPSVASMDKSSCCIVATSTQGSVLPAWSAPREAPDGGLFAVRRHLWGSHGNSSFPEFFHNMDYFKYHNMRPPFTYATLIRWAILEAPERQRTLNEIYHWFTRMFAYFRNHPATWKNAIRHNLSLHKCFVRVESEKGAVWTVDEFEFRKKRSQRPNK
As to the kind of experiment: PD-seq (MBP pull-down with sequencing). As to conditions: 20 mM Tris-HCl pH 7.5, 100 mM NaCl, 1.5 mM MgCl2, 0.4 uM protein, 0.1 uM dsDNA library, 30 min, room temperature, amylose pull-down; high values mean tight binding; double strand, one strand shown.
In the case of “GATGATTGTTCTCCCAGCTGATGAATTCCAACTCTCGAGTAAACAAATTTTCCTAATCTTTCTGTTCAAGCGCCATCTAC”, the binding signal (RPM ratio (pull-down/input)) amounted to 0.516. With “GATGATTGTTCTCCCAGCTGATGAATTAGCAATGTCGAGTAAACAAATTTTCCTAATCTTTCTGTTCAAGCGCCATCTAC”, the binding signal (RPM ratio (pull-down/input)) turned out to be 1.08.

In the case of “GATGATTGTTCTCCCAGCTGATGAATTCCAGTTATCGAGTAAACAAATTTTCCTAATCTTTCTGTTCAAGCGCCATCTAC”, the binding signal (RPM ratio (pull-down/input)) amounted to 0.709.

For the sequence “GATGATTGTTCTCCCAGCTGATGAATTGCGGGAGTCGAGTAAACAAATTTTCCTAATCTTTCTGTTCAAGCGCCATCTAC”, the binding signal (RPM ratio (pull-down/input)) stood at 0.509. Then “GATGATTGTTCTCCCAGCTGATGAATTAGGTTGGTCGAGTAAACAAATTTTCCTAATCTTTCTGTTCAAGCGCCATCTAC”, with 1.62; and “GATGATTGTTCTCCCAGCTGATGAATTCAAACACTCGAGTAAACAAATTTTCCTAATCTTTCTGTTCAAGCGCCATCTAC”, with 0.767. The figure for “GATGATTGTTCTCCCAGCTGATGAATTCTGTCGTTCGAGTAAACAAATTTTCCTAATCTTTCTGTTCAAGCGCCATCTAC” is 2.26. As to “GATGATTGTTCTCCCAGCTGATGAATTGGATCATTCGAGTAAACAAATTTTCCTAATCTTTCTGTTCAAGCGCCATCTAC”, the binding signal (RPM ratio (pull-down/input)) was determined as 0.441. Then “GATGATTGTTCTCCCAGCTGATGAATTAAGACGCTCGAGTAAACAAATTTTCCTAATCTTTCTGTTCAAGCGCCATCTAC”, with 0.432. On to “GATGATTGTTCTCCCAGCTGATGAATTCACAGTGTCGAGTAAACAAATTTTCCTAATCTTTCTGTTCAAGCGCCATCTAC”, for which the binding signal (RPM ratio (pull-down/input)) turned out to be 0.514. Regarding “GATGATTGTTCTCCCAGCTGATGAATTCTGGCCGTCGAGTAAACAAATTTTCCTAATCTTTCTGTTCAAGCGCCATCTAC”, the binding signal (RPM ratio (pull-down/input)) was determined as 0.356.

As to “GATGATTGTTCTCCCAGCTGATGAATTAGCACTTTCGAGTAAACAAATTTTCCTAATCTTTCTGTTCAAGCGCCATCTAC”, the binding signal (RPM ratio (pull-down/input)) amounted to 0.435.

For the sequence “GATGATTGTTCTCCCAGCTGATGAATTAAGCTCCTCGAGTAAACAAATTTTCCTAATCTTTCTGTTCAAGCGCCATCTAC”, the binding signal (RPM ratio (pull-down/input)) is 0.651. Then “GATGATTGTTCTCCCAGCTGATGAATTAACTGCGTCGAGTAAACAAATTTTCCTAATCTTTCTGTTCAAGCGCCATCTAC”, with 0.531; and “GATGATTGTTCTCCCAGCTGATGAATTAAGCAAGTCGAGTAAACAAATTTTCCTAATCTTTCTGTTCAAGCGCCATCTAC”, with 1.51; and “GATGATTGTTCTCCCAGCTGATGAATTCTCGTGATCGAGTAAACAAATTTTCCTAATCTTTCTGTTCAAGCGCCATCTAC”, with 0.306. Then “GATGATTGTTCTCCCAGCTGATGAATTTGTCATGTCGAGTAAACAAATTTTCCTAATCTTTCTGTTCAAGCGCCATCTAC”, with 5.15. Then “GATGATTGTTCTCCCAGCTGATGAATTAGCAGAGTCGAGTAAACAAATTTTCCTAATCTTTCTGTTCAAGCGCCATCTAC”, with 0.222; and “GATGATTGTTCTCCCAGCTGATGAATTGGTTTTTTCGAGTAAACAAATTTTCCTAATCTTTCTGTTCAAGCGCCATCTAC”, with 2.23; and “GATGATTGTTCTCCCAGCTGATGAATTATTTTCTTCGAGTAAACAAATTTTCCTAATCTTTCTGTTCAAGCGCCATCTAC”, with 1.07.

Consider “GATGATTGTTCTCCCAGCTGATGAATTCACTCGATCGAGTAAACAAATTTTCCTAATCTTTCTGTTCAAGCGCCATCTAC”, for which the binding signal (RPM ratio (pull-down/input)) stood at 0.243. The figure for “GATGATTGTTCTCCCAGCTGATGAATTCGTTGCATCGAGTAAACAAATTTTCCTAATCTTTCTGTTCAAGCGCCATCTAC” is 2.22; for “GATGATTGTTCTCCCAGCTGATGAATTTGTTGAGTCGAGTAAACAAATTTTCCTAATCTTTCTGTTCAAGCGCCATCTAC” it is 5.53; for “GATGATTGTTCTCCCAGCTGATGAATTGTCAAGTTCGAGTAAACAAATTTTCCTAATCTTTCTGTTCAAGCGCCATCTAC” it is 0.31. The figure for “GATGATTGTTCTCCCAGCTGATGAATTAGAACAGTCGAGTAAACAAATTTTCCTAATCTTTCTGTTCAAGCGCCATCTAC” is 0.253; for “GATGATTGTTCTCCCAGCTGATGAATTCGCGCTATCGAGTAAACAAATTTTCCTAATCTTTCTGTTCAAGCGCCATCTAC” it is 0.794; for “GATGATTGTTCTCCCAGCTGATGAATTCAGTGCCTCGAGTAAACAAATTTTCCTAATCTTTCTGTTCAAGCGCCATCTAC” it is 0.968. The figure for “GATGATTGTTCTCCCAGCTGATGAATTACCCCTGTCGAGTAAACAAATTTTCCTAATCTTTCTGTTCAAGCGCCATCTAC” is 0.273; for “GATGATTGTTCTCCCAGCTGATGAATTAGCAACTTCGAGTAAACAAATTTTCCTAATCTTTCTGTTCAAGCGCCATCTAC” it is 2.03; for “GATGATTGTTCTCCCAGCTGATGAATTGCCGACCTCGAGTAAACAAATTTTCCTAATCTTTCTGTTCAAGCGCCATCTAC” it is 0.405. For “GATGATTGTTCTCCCAGCTGATGAATTGATTTTCTCGAGTAAACAAATTTTCCTAATCTTTCTGTTCAAGCGCCATCTAC”, the binding signal (RPM ratio (pull-down/input)) was 1.46. As to “GATGATTGTTCTCCCAGCTGATGAATTATCCTAATCGAGTAAACAAATTTTCCTAATCTTTCTGTTCAAGCGCCATCTAC”, the binding signal (RPM ratio (pull-down/input)) turned out to be 0.27.

In the case of “GATGATTGTTCTCCCAGCTGATGAATTTCGGTCATCGAGTAAACAAATTTTCCTAATCTTTCTGTTCAAGCGCCATCTAC”, the binding signal (RPM ratio (pull-down/input)) is 0.583. The figure for “GATGATTGTTCTCCCAGCTGATGAATTCTCGACCTCGAGTAAACAAATTTTCCTAATCTTTCTGTTCAAGCGCCATCTAC” is 0.188; for “GATGATTGTTCTCCCAGCTGATGAATTATACCTTTCGAGTAAACAAATTTTCCTAATCTTTCTGTTCAAGCGCCATCTAC” it is 0.48; for “GATGATTGTTCTCCCAGCTGATGAATTCGGAGATTCGAGTAAACAAATTTTCCTAATCTTTCTGTTCAAGCGCCATCTAC” it is 0.341. Turning to “GATGATTGTTCTCCCAGCTGATGAATTCGTCTGGTCGAGTAAACAAATTTTCCTAATCTTTCTGTTCAAGCGCCATCTAC”, the binding signal (RPM ratio (pull-down/input)) was determined as 0.451. Then “GATGATTGTTCTCCCAGCTGATGAATTTTTGATCTCGAGTAAACAAATTTTCCTAATCTTTCTGTTCAAGCGCCATCTAC”, with 0.298; and “GATGATTGTTCTCCCAGCTGATGAATTAATACATTCGAGTAAACAAATTTTCCTAATCTTTCTGTTCAAGCGCCATCTAC”, with 0.813; and “GATGATTGTTCTCCCAGCTGATGAATTCTGAACTTCGAGTAAACAAATTTTCCTAATCTTTCTGTTCAAGCGCCATCTAC”, with 0.291. Then “GATGATTGTTCTCCCAGCTGATGAATTCGGCCCCTCGAGTAAACAAATTTTCCTAATCTTTCTGTTCAAGCGCCATCTAC”, with 1.04; and “GATGATTGTTCTCCCAGCTGATGAATTGCCTGCGTCGAGTAAACAAATTTTCCTAATCTTTCTGTTCAAGCGCCATCTAC”, with 0.937; and “GATGATTGTTCTCCCAGCTGATGAATTACTAACCTCGAGTAAACAAATTTTCCTAATCTTTCTGTTCAAGCGCCATCTAC”, with 0.423.

As to “GATGATTGTTCTCCCAGCTGATGAATTGCATGGCTCGAGTAAACAAATTTTCCTAATCTTTCTGTTCAAGCGCCATCTAC”, the binding signal (RPM ratio (pull-down/input)) is 1.19.

Take “GATGATTGTTCTCCCAGCTGATGAATTCGTATGATCGAGTAAACAAATTTTCCTAATCTTTCTGTTCAAGCGCCATCTAC”: the binding signal (RPM ratio (pull-down/input)) came to 0.73.

Turning to “GATGATTGTTCTCCCAGCTGATGAATTTTCCAGCTCGAGTAAACAAATTTTCCTAATCTTTCTGTTCAAGCGCCATCTAC”, the binding signal (RPM ratio (pull-down/input)) turned out to be 0.181. “GATGATTGTTCTCCCAGCTGATGAATTTGGGAAATCGAGTAAACAAATTTTCCTAATCTTTCTGTTCAAGCGCCATCTAC”: the binding signal (RPM ratio (pull-down/input)) came out at 0.392. As for “GATGATTGTTCTCCCAGCTGATGAATTAGATGACTCGAGTAAACAAATTTTCCTAATCTTTCTGTTCAAGCGCCATCTAC”, the binding signal (RPM ratio (pull-down/input)) was found to be 1.2. The figure for “GATGATTGTTCTCCCAGCTGATGAATTCTTCATGTCGAGTAAACAAATTTTCCTAATCTTTCTGTTCAAGCGCCATCTAC” is 0.297. The figure for “GATGATTGTTCTCCCAGCTGATGAATTCTTTCATTCGAGTAAACAAATTTTCCTAATCTTTCTGTTCAAGCGCCATCTAC” is 0.253; for “GATGATTGTTCTCCCAGCTGATGAATTTCTTACATCGAGTAAACAAATTTTCCTAATCTTTCTGTTCAAGCGCCATCTAC” it is 0.278; for “GATGATTGTTCTCCCAGCTGATGAATTCCCAAGGTCGAGTAAACAAATTTTCCTAATCTTTCTGTTCAAGCGCCATCTAC” it is 0.171. The figure for “GATGATTGTTCTCCCAGCTGATGAATTAGGCACCTCGAGTAAACAAATTTTCCTAATCTTTCTGTTCAAGCGCCATCTAC” is 0.988; for “GATGATTGTTCTCCCAGCTGATGAATTCCATAGCTCGAGTAAACAAATTTTCCTAATCTTTCTGTTCAAGCGCCATCTAC” it is 0.306.

Consider “GATGATTGTTCTCCCAGCTGATGAATTTCCATGTTCGAGTAAACAAATTTTCCTAATCTTTCTGTTCAAGCGCCATCTAC”, for which the binding signal (RPM ratio (pull-down/input)) stood at 0.453.

“GATGATTGTTCTCCCAGCTGATGAATTTTCAAATTCGAGTAAACAAATTTTCCTAATCTTTCTGTTCAAGCGCCATCTAC”: the binding signal (RPM ratio (pull-down/input)) was 0.224. The figure for “GATGATTGTTCTCCCAGCTGATGAATTGTCAAGCTCGAGTAAACAAATTTTCCTAATCTTTCTGTTCAAGCGCCATCTAC” is 0.338. In the case of “GATGATTGTTCTCCCAGCTGATGAATTATCGAAATCGAGTAAACAAATTTTCCTAATCTTTCTGTTCAAGCGCCATCTAC”, the binding signal (RPM ratio (pull-down/input)) came out at 0.382. The figure for “GATGATTGTTCTCCCAGCTGATGAATTGTGCTCTTCGAGTAAACAAATTTTCCTAATCTTTCTGTTCAAGCGCCATCTAC” is 0.852.

For the sequence “GATGATTGTTCTCCCAGCTGATGAATTCCACAGCTCGAGTAAACAAATTTTCCTAATCTTTCTGTTCAAGCGCCATCTAC”, the binding signal (RPM ratio (pull-down/input)) is 0.275. Then “GATGATTGTTCTCCCAGCTGATGAATTGCTCATATCGAGTAAACAAATTTTCCTAATCTTTCTGTTCAAGCGCCATCTAC”, with 0.658; and “GATGATTGTTCTCCCAGCTGATGAATTCACCCAATCGAGTAAACAAATTTTCCTAATCTTTCTGTTCAAGCGCCATCTAC”, with 0.262. Then “GATGATTGTTCTCCCAGCTGATGAATTGCTACTCTCGAGTAAACAAATTTTCCTAATCTTTCTGTTCAAGCGCCATCTAC”, with 0.823.
